Results published in the supplement of paper PMC8728848.
The list shows a part of the results.

Experiments:
Assay in all cases: glycan array binding signal (z-score within array); higher = stronger binding
Settings in all cases: glycan notation: IUPAC condensed, linker removed; mutation: N224Q
[1] = molecular target: Gal(b1-4)GlcNAc(b1-3)Gal(b1-4)GlcNAc(b1-2)Man(a1-3)[Gal(b1-4)GlcNAc(b1-3)Gal(b1-4)GlcNAc(b1-2)Man(a1-6)]Man(b1-4)GlcNAc(b1-4)[Fuc(a1-6)]GlcNAc
Summary of the method: (§1)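 The binding signal is a Z-score computed within each array and averaged over linkers. Arrays of the same protein sequence at different concentrations or buffers were also averaged together. Data originate from 3228 arrays in the Consortium for Functional Glycomics database, kept only where the protein sequence was available.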

[2] = molecular target: Gal(b1-4)GlcNAc(b1-3)Gal(b1-4)GlcNAc(b1-2)[Gal(b1-4)GlcNAc(b1-3)Gal(b1-4)GlcNAc(b1-6)]Man(a1-6)[Gal(b1-4)GlcNAc(b1-3)Gal(b1-4)GlcNAc(b1-2)Man(a1-3)]Man(b1-4)GlcNAc(b1-4)GlcNAc
Summary of the method: as §1

[3] = molecular target: Gal(b1-4)GlcNAc(b1-3)Gal(b1-4)GlcNAc(b1-2)[Gal(b1-4)GlcNAc(b1-3)Gal(b1-4)GlcNAc(b1-6)]Man(a1-6)[Gal(b1-4)GlcNAc(b1-3)Gal(b1-4)GlcNAc(b1-2)Man(a1-3)]Man(b1-4)GlcNAc(b1-4)[Fuc(a1-6)]GlcNAc
Summary of the method: as §1

[4] = molecular target: Gal(b1-4)GlcNAc(b1-3)Gal(b1-4)GlcNAc(b1-3)Gal(b1-4)GlcNAc
Summary of the method: as §1

[5] = molecular target: Gal(b1-4)GlcNAc(b1-3)Gal(b1-4)GlcNAc(b1-3)Gal(b1-4)GlcNAc(b1-2)Man(a1-3)[Gal(b1-4)GlcNAc(b1-3)Gal(b1-4)GlcNAc(b1-3)Gal(b1-4)GlcNAc(b1-2)Man(a1-6)]Man(b1-4)GlcNAc(b1-4)GlcNAc
Summary of the method: as §1

[6] = molecular target: Gal(b1-4)GlcNAc(b1-3)Gal(b1-4)GlcNAc(b1-3)Gal(b1-4)GlcNAc(b1-2)Man(a1-3)[Gal(b1-4)GlcNAc(b1-3)Gal(b1-4)GlcNAc(b1-3)Gal(b1-4)GlcNAc(b1-2)Man(a1-6)]Man(b1-4)GlcNAc(b1-4)[Fuc(a1-6)]GlcNAc
Summary of the method: as §1

[7] = molecular target: Gal(b1-4)GlcNAc(b1-3)Gal(b1-4)GlcNAc(b1-3)Gal(b1-4)GlcNAc(b1-2)[Gal(b1-4)GlcNAc(b1-3)Gal(b1-4)GlcNAc(b1-3)Gal(b1-4)GlcNAc(b1-6)]Man(a1-6)[Gal(b1-4)GlcNAc(b1-3)Gal(b1-4)GlcNAc(b1-3)Gal(b1-4)GlcNAc(b1-2)Man(a1-3)]Man(b1-4)GlcNAc(b1-4)[Fuc(a1-6)]GlcNAc
Summary of the method: as §1

[8] = molecular target: Gal(b1-4)GlcNAc(b1-3)Gal(b1-4)GlcNAc(b1-3)Gal(b1-4)GlcNAc(b1-3)Gal(b1-4)GlcNAc(b1-2)Man(a1-3)[Gal(b1-4)GlcNAc(b1-3)Gal(b1-4)GlcNAc(b1-3)Gal(b1-4)GlcNAc(b1-3)Gal(b1-4)GlcNAc(b1-2)Man(a1-6)]Man(b1-4)GlcNAc(b1-4)GlcNAc
Summary of the method: as §1

[9] = molecular target: Gal(b1-4)GlcNAc(b1-3)Gal(b1-4)GlcNAc(b1-3)Gal(b1-4)GlcNAc(b1-3)Gal(b1-4)GlcNAc(b1-2)Man(a1-3)[Gal(b1-4)GlcNAc(b1-3)Gal(b1-4)GlcNAc(b1-3)Gal(b1-4)GlcNAc(b1-3)Gal(b1-4)GlcNAc(b1-2)Man(a1-6)]Man(b1-4)GlcNAc(b1-4)[Fuc(a1-6)]GlcNAc
Summary of the method: as §1

[10] = molecular target: Gal(b1-4)GlcNAc(b1-3)Gal(b1-4)GlcNAc(b1-3)Gal(b1-4)GlcNAc(b1-3)Gal(b1-4)GlcNAc(b1-2)[Gal(b1-4)GlcNAc(b1-3)Gal(b1-4)GlcNAc(b1-3)Gal(b1-4)GlcNAc(b1-3)Gal(b1-4)GlcNAc(b1-6)]Man(a1-6)[Gal(b1-4)GlcNAc(b1-3)Gal(b1-4)GlcNAc(b1-3)Gal(b1-4)GlcNAc(b1-3)Gal(b1-4)GlcNAc(b1-2)Man(a1-3)]Man(b1-4)GlcNAc(b1-4)[Fuc(a1-6)]GlcNAc
Summary of the method: as §1

[11] = molecular target: Gal(b1-4)GlcNAc(b1-3)Gal(b1-4)GlcNAc(b1-3)Gal(b1-4)GlcNAc(b1-3)Gal(b1-4)GlcNAc(b1-3)Gal(b1-4)GlcNAc(b1-2)Man(a1-3)[Gal(b1-4)GlcNAc(b1-3)Gal(b1-4)GlcNAc(b1-3)Gal(b1-4)GlcNAc(b1-3)Gal(b1-4)GlcNAc(b1-3)Gal(b1-4)GlcNAc(b1-2)Man(a1-6)]Man(b1-4)GlcNAc(b1-4)GlcNAc
Summary of the method: as §1

[12] = molecular target: Gal(b1-4)GlcNAc(b1-3)Gal(b1-4)GlcNAc(b1-3)Gal(b1-4)GlcNAc(b1-3)Gal(b1-4)GlcNAc(b1-3)Gal(b1-4)GlcNAc(b1-2)Man(a1-3)[Gal(b1-4)GlcNAc(b1-3)Gal(b1-4)GlcNAc(b1-3)Gal(b1-4)GlcNAc(b1-3)Gal(b1-4)GlcNAc(b1-3)Gal(b1-4)GlcNAc(b1-2)Man(a1-6)]Man(b1-4)GlcNAc(b1-4)[Fuc(a1-6)]GlcNAc
Summary of the method: as §1

[13] = molecular target: Gal(b1-4)GlcNAc(b1-3)Gal(b1-4)GlcNAc(b1-3)Gal(b1-4)GlcNAc(b1-3)Gal(b1-4)GlcNAc(b1-3)Gal(b1-4)GlcNAc(b1-2)[Gal(b1-4)GlcNAc(b1-3)Gal(b1-4)GlcNAc(b1-3)Gal(b1-4)GlcNAc(b1-3)Gal(b1-4)GlcNAc(b1-3)Gal(b1-4)GlcNAc(b1-6)]Man(a1-6)[Gal(b1-4)GlcNAc(b1-3)Gal(b1-4)GlcNAc(b1-3)Gal(b1-4)GlcNAc(b1-3)Gal(b1-4)GlcNAc(b1-3)Gal(b1-4)GlcNAc(b1-2)Man(a1-3)]Man(b1-4)GlcNAc(b1-4)[Fuc(a1-6)]GlcNAc
Summary of the method: as §1

[14] = molecular target: Gal(b1-4)GlcNAc(b1-3)Gal(b1-4)GlcNAc(b1-3)Gal(b1-4)GlcNAc(b1-3)Gal(b1-4)GlcNAc(b1-3)Gal(b1-4)GlcNAc(b1-3)Gal(b1-4)GlcNAc(b1-2)Man(a1-3)[Gal(b1-4)GlcNAc(b1-3)Gal(b1-4)GlcNAc(b1-3)Gal(b1-4)GlcNAc(b1-3)Gal(b1-4)GlcNAc(b1-3)Gal(b1-4)GlcNAc(b1-3)Gal(b1-4)GlcNAc(b1-2)Man(a1-6)]Man(b1-4)GlcNAc(b1-4)GlcNAc
Summary of the method: as §1

[15] = molecular target: Gal(b1-4)GlcNAc(b1-3)Gal(b1-4)GlcNAc(b1-3)GalNAc
Summary of the method: as §1

[16] = molecular target: Gal(b1-4)GlcNAc(b1-3)Gal(b1-4)GlcNAc(b1-3)[Gal(b1-4)GlcNAc(b1-3)Gal(b1-4)GlcNAc(b1-6)]GalNAc
Summary of the method: as §1

[17] = molecular target: Gal(b1-4)GlcNAc(b1-3)Gal(b1-4)GlcNAc(b1-6)[Gal(b1-3)]GalNAc
Summary of the method: as §1

[18] = molecular target: Gal(b1-4)GlcNAc(b1-3)Gal(b1-4)[Fuc(a1-3)]GlcNAc(b1-3)Gal(b1-4)[Fuc(a1-3)]GlcNAc
Summary of the method: as §1

[19] = molecular target: Gal(b1-4)GlcNAc(b1-3)GalNAc
Summary of the method: as §1

[20] = molecular target: Gal(b1-4)GlcNAc(b1-3)[Fuc(a1-3)GlcNAc(b1-6)]Gal(b1-4)Glc
Summary of the method: as §1

[21] = molecular target: Gal(b1-4)GlcNAc(b1-3)[Gal(b1-4)GlcNAc(b1-6)]Gal(b1-4)GlcNAc
Summary of the method: as §1

[22] = molecular target: Gal(b1-4)GlcNAc(b1-3)[GlcNAc(b1-6)]Gal(b1-4)GlcNAc
Summary of the method: as §1

B1: AAL (Aleuria aurantia) (protein)
chain: MPTEFLYTSKIAAISWAATGGRQQRVYFQDLNGKIREAQRGGDNPWTGGSSQNVIGEAKLFSPLAAVTWKSAQGIQIRVYCVNKDNILSEFVYDGSKWITGQLGSVGVKVGSNSKLAALQWGGSESAPPNIRVYYQKSNGSGSSIHEYVWSGKWTAGASFGSTVPGTGIGATAIGPGRLRIYYQATDNKIREHCWDSNSWYVGGFSASASAGVSIAAISWGSTPQIRVYWQKGREELYEAAYGGSWNTPGQIKDASRPTPSLPDTFIAANSSGNIDISVFFQASGVSLQQWQWISGKGWSIGAVVPTGTPAGW
Which “glycan array binding signal (z-score)” value [1] does the source give for B1 here?
Its value is 1.26.

And the “glycan array binding signal (z-score)” value [2]?
Its value is -0.263.

And the “glycan array binding signal (z-score)” value [3]?
The value was 0.135.

And the “glycan array binding signal (z-score)” value [4]?
Its value is -0.306.

What about the “glycan array binding signal (z-score)” value [5] of the same binder?
The value was -0.195.

What about the “glycan array binding signal (z-score)” value [6] of the same binder?
Its value is 1.85.

And the “glycan array binding signal (z-score)” value [7]?
The value was -0.092.

What about the “glycan array binding signal (z-score)” value [8] of the same binder?
The value was -0.275.

And the “glycan array binding signal (z-score)” value [9]?
Its value is 1.58.

And the “glycan array binding signal (z-score)” value [10]?
The value was -0.229.

What about the “glycan array binding signal (z-score)” value [11] of the same binder?
Its value is -0.237.

What about the “glycan array binding signal (z-score)” value [12] of the same binder?
Its value is 1.62.

What about the “glycan array binding signal (z-score)” value [13] of the same binder?
Its value is -0.248.

What about the “glycan array binding signal (z-score)” value [14] of the same binder?
The value was -0.19.

And the “glycan array binding signal (z-score)” value [15]?
The value was -0.224.

What about the “glycan array binding signal (z-score)” value [16] of the same binder?
The value was -0.068.

What about the “glycan array binding signal (z-score)” value [17] of the same binder?
Its value is -0.261.

What about the “glycan array binding signal (z-score)” value [18] of the same binder?
Its value is 0.142.

And the “glycan array binding signal (z-score)” value [19]?
Its value is -0.318.

What about the “glycan array binding signal (z-score)” value [20] of the same binder?
The value was -0.2.

What about the “glycan array binding signal (z-score)” value [21] of the same binder?
Its value is -0.318.

What about the “glycan array binding signal (z-score)” value [22] of the same binder?
The value was -0.293.
